Biological target: SARS-CoV-2 印度delta突变型假病毒 (SARS-CoV-2 delta variant)
Test: cell-based or functional assay

B1: R-30-FC (Fc fusion)
chain: QVQLQESGGGLVQSGGSLRLSCTASGGIIRLNSMGWYRQAPGKQREPVATIVSDVGTNYADSVKGRFTISRDNAKNTIYLQMNSLKFEDTAVYYCVADRAFVLRGEYEYWGQGTQVTVSS[letters of human IgG1 Fc omitted]
notes: also called R-30-FC双价纳米抗体; 双价纳米抗体
  假病毒中和 IC50 (luciferase signal, Opti-HEK293/ACE2 cells): 295 pM

— patent CN117069831A (SHENZHEN BGI LIFE SCIENCE RES INSTITUTE, dated 2023)
